Values of other authors as cited in patent publication US20060057198A1, “Drug delivery from embolic agents” (BIOCOMPATIBLES UK LIMITED, priority 2003, published 2006).
Some results were stated once for a whole list of compounds, not compound by compound. For at least one compound, name, drawing or mass did not settle the structure.

Tested on: COX-2/COX-1
Conditions: cited from earlier work

Row | Compound | Log [IC80 ratio WHMA COX-2/COX-1)]
1 | CC(C(=O)O)c1ccc(-c2ccccc2)c(F)c1 (stereo not shown) [Flurbiprofen] | 1 to 2
2 | CSc1ccc(/C=C2/C(C)=C(CC(=O)O)c3cc(F)ccc32)cc1 [Sulindac Sulphide] | −1 to 0
3 | Cc1cnc(NC(=O)C2=C(O)c3ccccc3S(=O)(=O)N2C)s1 [Meloxicam] | −1 to 0
4 | CS(=O)(=O)Nc1ccc([N+](=O)[O-])cc1OC1CCCCC1 [NS398] | −2 to −1
5 | COc1ccc2c(c1)c(CC(=O)O)c(C)n2C(=O)c1ccc(Cl)cc1 [Indomethacin] | 0 to 1
6 | CCc1cccc2c3c([nH]c12)C(CC)(CC(=O)O)OCC3 (stereo not shown) [Etodolac] | −2 to −1
7 | CS(=O)(=O)c1ccc(C2=C(c3ccccc3)C(=O)OC2)cc1 [Rofecoxib] | −2 to −1
8 | CN1C(C(=O)Nc2ccccn2)=C(O)c2ccccc2S1(=O)=O [Piroxicam] | −1 to 0
9 | CC(=O)Oc1ccccc1C(=O)O [Aspirin] | 0 to 1
10 | CC(C)Cc1ccc(C(C)C(=O)O)cc1 (stereo not shown) [Ibuprofen] | 0 to 1
